Substitutions are numbered along the chain they refer to; changes in the protein carry UniProt numbers. Some of the results follow.
B1: GGGAAGG (DNA:RNA)
RNA: GGGAGACCGGAAUUCAGAUUGUCCGGGAAGGUUAAAUCCCGUCGUAGCCACCA
DNA 1: CAATCTGAATTCCGGTCTCCC
DNA 2: TGGTGGCTACGACGGGATT
B2: GACUGCU (DNA:RNA)
RNA: B1 RNA with G26A, G27C, A28U, A29G, G30C, G31U
DNA 1: CAATCTGAATTCCGGTCTCCC
DNA 2: TGGTGGCTACGACGGGATT
B3: CGGUACA (DNA:RNA)
RNA: B1 RNA with G25C, A28U, G30C, G31A
DNA 1: CAATCTGAATTCCGGTCTCCC
DNA 2: TGGTGGCTACGACGGGATT
B4: CGCACGU (DNA:RNA)
RNA: B1 RNA with G25C, G27C, A29C, G31U
DNA 1: CAATCTGAATTCCGGTCTCCC
DNA 2: TGGTGGCTACGACGGGATT
B5: GAAACAC (DNA:RNA)
RNA: B1 RNA with G26A, G27A, A29C, G30A, G31C
DNA 1: CAATCTGAATTCCGGTCTCCC
DNA 2: TGGTGGCTACGACGGGATT
B6: UUUCGGG (DNA:RNA)
RNA: B1 RNA with G25U, G26U, G27U, A28C, A29G
DNA 1: CAATCTGAATTCCGGTCTCCC
DNA 2: TGGTGGCTACGACGGGATT
B7: ACACUCC (DNA:RNA)
RNA: GGGAGACCGGAAUUCAGAUUGUCCACACUCCUUAAAUCCCGUCGUAGCCACCA
DNA 1: CAATCTGAATTCCGGTCTCCC
DNA 2: TGGTGGCTACGACGGGATT
B8: UCGACCG (DNA:RNA)
RNA: B1 RNA with G25U, G26C, A29C, G30C
DNA 1: CAATCTGAATTCCGGTCTCCC
DNA 2: TGGTGGCTACGACGGGATT
B9: CGCCUAG (DNA:RNA)
RNA: B7 RNA with A25C, C26G, A27C, C30A, C31G
DNA 1: CAATCTGAATTCCGGTCTCCC
DNA 2: TGGTGGCTACGACGGGATT
B10: UAACUCU (DNA:RNA)
RNA: B7 RNA with A25U, C26A, C31U
DNA 1: CAATCTGAATTCCGGTCTCCC
DNA 2: TGGTGGCTACGACGGGATT
B11: CCUCUAG (DNA:RNA)
RNA: B7 RNA with A25C, A27U, C30A, C31G
DNA 1: CAATCTGAATTCCGGTCTCCC
DNA 2: TGGTGGCTACGACGGGATT
B12: UCAUAAG (DNA:RNA)
RNA: B7 RNA with A25U, C28U, U29A, C30A, C31G
DNA 1: CAATCTGAATTCCGGTCTCCC
DNA 2: TGGTGGCTACGACGGGATT
B13: GCGGGCU (DNA:RNA)
RNA: B7 RNA with A25G, A27G, C28G, U29G, C31U
DNA 1: CAATCTGAATTCCGGTCTCCC
DNA 2: TGGTGGCTACGACGGGATT
B14: UAGCCUU (DNA:RNA)
RNA: B7 RNA with A25U, C26A, A27G, U29C, C30U, C31U
DNA 1: CAATCTGAATTCCGGTCTCCC
DNA 2: TGGTGGCTACGACGGGATT
B15: AAGCAGU (DNA:RNA)
RNA: B1 RNA with G25A, G26A, A28C, G31U
DNA 1: CAATCTGAATTCCGGTCTCCC
DNA 2: TGGTGGCTACGACGGGATT
B16: GUUAACU (DNA:RNA)
RNA: B1 RNA with G26U, G27U, G30C, G31U
DNA 1: CAATCTGAATTCCGGTCTCCC
DNA 2: TGGTGGCTACGACGGGATT
B17: UUAGACC (DNA:RNA)
RNA: B7 RNA with A25U, C26U, C28G, U29A
DNA 1: CAATCTGAATTCCGGTCTCCC
DNA 2: TGGTGGCTACGACGGGATT
B18: AAUUACU (DNA:RNA)
RNA: B7 RNA with C26A, A27U, C28U, U29A, C31U
DNA 1: CAATCTGAATTCCGGTCTCCC
DNA 2: TGGTGGCTACGACGGGATT
B19: AGCCGAU (DNA:RNA)
RNA: B7 RNA with C26G, A27C, U29G, C30A, C31U
DNA 1: CAATCTGAATTCCGGTCTCCC
DNA 2: TGGTGGCTACGACGGGATT
B20: GGUAGCU (DNA:RNA)
RNA: B1 RNA with G27U, A29G, G30C, G31U
DNA 1: CAATCTGAATTCCGGTCTCCC
DNA 2: TGGTGGCTACGACGGGATT

Each binder was assayed against T1, RBFOX1 RRM (Homo sapiens, UniProt Q9NWB1 109-208) (assay: EMSA; HiTS-Eq, 1 nM pool, 10 min; buffer printed only for the single-RNA assays: 10 mM Tris pH 7.5, 150 mM NaCl, 3.4 mM EDTA, 0.001% NP-40, 30 C). Details: tags: His6 N-terminal (pET28a); label: 5' 32P.
T1 sequence: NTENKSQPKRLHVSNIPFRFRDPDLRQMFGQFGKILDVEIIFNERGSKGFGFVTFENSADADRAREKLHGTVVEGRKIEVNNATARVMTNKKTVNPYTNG
Summary of the method: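 Purified RbFox RRM (wild type or mutant) was equilibrated for 10 min in 50 µL with 1 nM of a 5′-radiolabelled pool of RNA with 7 randomized nucleotides, its flanks annealed to DNA oligonucleotides, across increasing protein concentrations. Free RNA was separated by 8% native PAGE, excised, reverse-transcribed, PCR-barcoded and sequenced on an Illumina HiSeq 2500. Relative association constants came from read-count changes of each variant against the control reaction, normalised to the cognate motif.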

| Binder | binding signal |
| --- | --- |
| B1 | 0.024 KA relative to UGCAUGU |
| B2 | 0.0255 KA relative to UGCAUGU |
| B3 | 0.0069 KA relative to UGCAUGU |
| B4 | 0.0433 KA relative to UGCAUGU |
| B5 | 0.00274 KA relative to UGCAUGU |
| B6 | 0.00493 KA relative to UGCAUGU |
| B7 | 0.000416 KA relative to UGCAUGU |
| B8 | 0.0112 KA relative to UGCAUGU |
| B9 | 0.00888 KA relative to UGCAUGU |
| B10 | 0.00476 KA relative to UGCAUGU |
| B11 | 0.00474 KA relative to UGCAUGU |
| B12 | 0.00754 KA relative to UGCAUGU |
| B13 | 0.0197 KA relative to UGCAUGU |
| B14 | 0.0105 KA relative to UGCAUGU |
| B15 | 0.00499 KA relative to UGCAUGU |
| B16 | 0.00708 KA relative to UGCAUGU |
| B17 | 0.00675 KA relative to UGCAUGU |
| B18 | 0.00362 KA relative to UGCAUGU |
| B19 | 0.00393 KA relative to UGCAUGU |
| B20 | 0.0165 KA relative to UGCAUGU |
